# Source: the supplement of paper PMC8728848
# The other results are listed elsewhere or left out.
# What was measured:
# Experiment in all cases: glycan array binding signal (z-score within array); higher = stronger binding
# Settings in all cases: glycan notation: IUPAC condensed, linker removed
# [1] = target: Fuc(a1-2)Gal6S(b1-3)GlcNAc6S
# Method in brief: (§1)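 From the Consortium for Functional Glycomics database, 3228 arrays were curated, keeping only those whose protein sequence was available. Binding is given as a within-array Z-score averaged across arrays sharing a protein sequence and across linkers. Negative Z-scores can be read as non-binding.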
# Fuc(a1-2)Gal6S(b1-4)Glc = target: Fuc(a1-2)Gal6S(b1-4)Glc
# Method in brief: as §1
# [2] = target: Fuc(a1-2)Gal6S(b1-4)Glc6S
# Method in brief: as §1
# Fuc(a1-2)[Gal(a1-3)]Gal = target: Fuc(a1-2)[Gal(a1-3)]Gal
# Method in brief: as §1
# [3] = target: Fuc(a1-2)[Gal(a1-3)]Gal(b1-3)GalNAc
# Method in brief: as §1
# [4] = target: Fuc(a1-2)[Gal(a1-3)]Gal(b1-3)GalNAc(b1-3)Gal(a1-4)Gal(b1-4)Glc
# Method in brief: as §1
# [5] = target: Fuc(a1-2)[Gal(a1-3)]Gal(b1-3)GlcNAc
# Method in brief: as §1
# [6] = target: Fuc(a1-2)[Gal(a1-3)]Gal(b1-3)GlcNAc(b1-2)Man(a1-3)[Fuc(a1-2)[Gal(a1-3)]Gal(b1-3)GlcNAc(b1-2)Man(a1-6)]Man(b1-4)GlcNAc(b1-4)GlcNAc
# Method in brief: as §1
# [7] = target: Fuc(a1-2)[Gal(a1-3)]Gal(b1-3)GlcNAc(b1-2)Man(a1-3)[Fuc(a1-2)[Gal(a1-3)]Gal(b1-3)GlcNAc(b1-2)Man(a1-6)]Man(b1-4)GlcNAc(b1-4)[Fuc(a1-6)]GlcNAc
# Method in brief: as §1
# [8] = target: Fuc(a1-2)[Gal(a1-3)]Gal(b1-3)GlcNAc(b1-3)GalNAc
# Method in brief: as §1
# [9] = target: Fuc(a1-2)[Gal(a1-3)]Gal(b1-3)GlcNAc(b1-6)GalNAc
# Method in brief: as §1
# [10] = target: Fuc(a1-2)[Gal(a1-3)]Gal(b1-4)Glc
# Method in brief: as §1
# [11] = target: Fuc(a1-2)[Gal(a1-3)]Gal(b1-4)GlcNAc
# Method in brief: as §1
# [12] = target: Fuc(a1-2)[Gal(a1-3)]Gal(b1-4)GlcNAc(b1-2)Man
# Method in brief: as §1
# [13] = target: Fuc(a1-2)[Gal(a1-3)]Gal(b1-4)GlcNAc(b1-2)Man(a1-3)[Fuc(a1-2)[Gal(a1-3)]Gal(b1-4)GlcNAc(b1-2)Man(a1-6)]Man(b1-4)GlcNAc(b1-4)GlcNAc
# Method in brief: as §1
# [14] = target: Fuc(a1-2)[Gal(a1-3)]Gal(b1-4)GlcNAc(b1-2)Man(a1-3)[Fuc(a1-2)[Gal(a1-3)]Gal(b1-4)GlcNAc(b1-2)Man(a1-6)]Man(b1-4)GlcNAc(b1-4)[Fuc(a1-6)]GlcNAc
# Method in brief: as §1
# [15] = target: Fuc(a1-2)[Gal(a1-3)]Gal(b1-4)GlcNAc(b1-3)GalNAc
# Method in brief: as §1
# [16] = target: Fuc(a1-2)[Gal(a1-3)]Gal(b1-4)GlcNAc(b1-3)[Fuc(a1-2)[Gal(a1-3)]Gal(b1-4)GlcNAc(b1-6)]GalNAc
# Method in brief: as §1
# [17] = target: Fuc(a1-2)[Gal(a1-3)]Gal(b1-4)GlcNAc(b1-6)GalNAc
# Method in brief: as §1
# [18] = target: Fuc(a1-2)[Gal(a1-3)]Gal(b1-4)[Fuc(a1-3)]Glc
# Method in brief: as §1
# [19] = target: Fuc(a1-2)[Gal(a1-3)]Gal(b1-4)[Fuc(a1-3)]GlcNAc
# Method in brief: as §1
# [20] = target: Fuc(a1-2)[Gal(a1-3)]Gal(b1-4)[Fuc(a1-3)]GlcNAc(b1-3)GalNAc
# Method in brief: as §1
# [21] = target: Fuc(a1-2)[Gal(a1-4)]Gal(b1-4)GlcNAc
# Method in brief: as §1
# [22] = target: Fuc(a1-2)[GalNAc(a1-3)]Gal
# Method in brief: as §1
# [23] = target: Fuc(a1-2)[GalNAc(a1-3)]Gal(b1-3)GalNAc(a1-3)[Fuc(a1-2)]Gal(b1-4)GlcNAc
# Method in brief: as §1
# [24] = target: Fuc(a1-2)[GalNAc(a1-3)]Gal(b1-3)GalNAc(b1-3)Gal(a1-4)Gal(b1-4)Glc
# Method in brief: as §1
# [25] = target: Fuc(a1-2)[GalNAc(a1-3)]Gal(b1-3)GlcNAc
# Method in brief: as §1
# [26] = target: Fuc(a1-2)[GalNAc(a1-3)]Gal(b1-3)GlcNAc(b1-2)Man(a1-3)[Fuc(a1-2)[GalNAc(a1-3)]Gal(b1-3)GlcNAc(b1-2)Man(a1-6)]Man(b1-4)GlcNAc(b1-4)GlcNAc
# Method in brief: as §1
# [27] = target: Fuc(a1-2)[GalNAc(a1-3)]Gal(b1-3)GlcNAc(b1-2)Man(a1-3)[Fuc(a1-2)[GalNAc(a1-3)]Gal(b1-3)GlcNAc(b1-2)Man(a1-6)]Man(b1-4)GlcNAc(b1-4)[Fuc(a1-6)]GlcNAc
# Method in brief: as §1
# [28] = target: Fuc(a1-2)[GalNAc(a1-3)]Gal(b1-3)GlcNAc(b1-3)GalNAc
# Method in brief: as §1
# [29] = target: Fuc(a1-2)[GalNAc(a1-3)]Gal(b1-3)GlcNAc(b1-6)GalNAc
# Method in brief: as §1
# [30] = target: Fuc(a1-2)[GalNAc(a1-3)]Gal(b1-4)Glc
# Method in brief: as §1
# [31] = target: Fuc(a1-2)[GalNAc(a1-3)]Gal(b1-4)GlcNAc
# Method in brief: as §1
# [32] = target: Fuc(a1-2)[GalNAc(a1-3)]Gal(b1-4)GlcNAc(b1-2)Man
# Method in brief: as §1
# [33] = target: Fuc(a1-2)[GalNAc(a1-3)]Gal(b1-4)GlcNAc(b1-2)Man(a1-3)[Fuc(a1-2)[GalNAc(a1-3)]Gal(b1-4)GlcNAc(b1-2)Man(a1-6)]Man(b1-4)GlcNAc(b1-4)GlcNAc
# Method in brief: as §1
# [34] = target: Fuc(a1-2)[GalNAc(a1-3)]Gal(b1-4)GlcNAc(b1-2)Man(a1-3)[Fuc(a1-2)[GalNAc(a1-3)]Gal(b1-4)GlcNAc(b1-2)Man(a1-6)]Man(b1-4)GlcNAc(b1-4)[Fuc(a1-6)]GlcNAc
# Method in brief: as §1
# [35] = target: Fuc(a1-2)[GalNAc(a1-3)]Gal(b1-4)GlcNAc(b1-3)Gal(b1-4)GlcNAc
# Method in brief: as §1
# [36] = target: Fuc(a1-2)[GalNAc(a1-3)]Gal(b1-4)GlcNAc(b1-3)Gal(b1-4)GlcNAc(b1-3)Gal(b1-4)GlcNAc
# Method in brief: as §1
# [37] = target: Fuc(a1-2)[GalNAc(a1-3)]Gal(b1-4)GlcNAc(b1-3)GalNAc
# Method in brief: as §1
# [38] = target: Fuc(a1-2)[GalNAc(a1-3)]Gal(b1-4)GlcNAc(b1-3)[Fuc(a1-2)[GalNAc(a1-3)]Gal(b1-4)GlcNAc(b1-6)]GalNAc
# Method in brief: as §1
# [39] = target: Fuc(a1-2)[GalNAc(a1-3)]Gal(b1-4)GlcNAc(b1-6)GalNAc
# Method in brief: as §1
# [40] = target: Fuc(a1-2)[GalNAc(a1-3)]Gal(b1-4)[Fuc(a1-3)]GlcNAc
# Method in brief: as §1
# [41] = target: Fuc(a1-2)[GalNAc(a1-3)]Gal(b1-4)[Fuc(a1-3)]GlcNAc(b1-3)GalNAc
# Method in brief: as §1
# [42] = target: Fuc(a1-2)[GalNAc(a1-4)]Gal(b1-4)GlcNAc
# Method in brief: as §1
# [43] = target: Fuc(a1-2)[GalNAc(b1-3)]Gal
# Method in brief: as §1
binder,measurement,setting,value
HPL (Tachypleus tridentatus) (protein) MEDDCTCVTDRSLEGKLMKHPSTPAVYQILDGCRRLVPNPPTYNNIYKNWECIQSNILEKLLCKCDSLSNGAELIKGSGDTVYLLSNGVKRPIADPETFNGFCFDWNKIKTYSDIVINSLSTGPIIIIKHHHHHH,glycan array binding signal (z-score),[1],-0.334
same,glycan array binding signal (z-score),Fuc(a1-2)Gal6S(b1-4)Glc,-0.084
same,glycan array binding signal (z-score),[2],-0.222
same,glycan array binding signal (z-score),Fuc(a1-2)[Gal(a1-3)]Gal,-0.314
same,glycan array binding signal (z-score),[3],-0.299
same,glycan array binding signal (z-score),[4],-0.302
same,glycan array binding signal (z-score),[5],-0.238
same,glycan array binding signal (z-score),[6],-0.163
same,glycan array binding signal (z-score),[7],0.577
same,glycan array binding signal (z-score),[8],-0.174
same,glycan array binding signal (z-score),[9],0.115
same,glycan array binding signal (z-score),[10],-0.003
same,glycan array binding signal (z-score),[11],-0.384
same,glycan array binding signal (z-score),[12],0.07
same,glycan array binding signal (z-score),[13],0.264
same,glycan array binding signal (z-score),[14],0.564
same,glycan array binding signal (z-score),[15],-0.308
same,glycan array binding signal (z-score),[16],-0.082
same,glycan array binding signal (z-score),[17],1.39
same,glycan array binding signal (z-score),[18],-0.275
same,glycan array binding signal (z-score),[19],-0.241
same,glycan array binding signal (z-score),[20],-0.12
same,glycan array binding signal (z-score),[21],-0.303
same,glycan array binding signal (z-score),[22],-0.411
same,glycan array binding signal (z-score),[23],-0.395
same,glycan array binding signal (z-score),[24],-0.096
same,glycan array binding signal (z-score),[25],-0.111
same,glycan array binding signal (z-score),[26],0.453
same,glycan array binding signal (z-score),[27],0.268
same,glycan array binding signal (z-score),[28],-0.144
same,glycan array binding signal (z-score),[29],-0.159
same,glycan array binding signal (z-score),[30],-0.297
same,glycan array binding signal (z-score),[31],-0.387
same,glycan array binding signal (z-score),[32],-0.273
same,glycan array binding signal (z-score),[33],-0.257
same,glycan array binding signal (z-score),[34],0.104
same,glycan array binding signal (z-score),[35],-0.321
same,glycan array binding signal (z-score),[36],0.144
same,glycan array binding signal (z-score),[37],-0.042
same,glycan array binding signal (z-score),[38],-0.168
same,glycan array binding signal (z-score),[39],-0.303
same,glycan array binding signal (z-score),[40],-0.19
same,glycan array binding signal (z-score),[41],0.139
same,glycan array binding signal (z-score),[42],-0.434
same,glycan array binding signal (z-score),[43],-0.447
